{"source": "paper PMC4336329", "about": "(PLoS ONE, 2015)", "note": "The whole screen tested about 310,000 compounds, of which about 14,000 (4.5%) showed an effect of 50% or more. The effect is printed as a negative number. Some of the results follow.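 Further: peak tail current of the secondary pulse compared with the same well before compound.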"}
{"biological_target": "human ether-à-go-go-related gene (hERG) potassium channel (human, UniProt Q12809)", "sequence (Q12809 whole entry, looked up)": "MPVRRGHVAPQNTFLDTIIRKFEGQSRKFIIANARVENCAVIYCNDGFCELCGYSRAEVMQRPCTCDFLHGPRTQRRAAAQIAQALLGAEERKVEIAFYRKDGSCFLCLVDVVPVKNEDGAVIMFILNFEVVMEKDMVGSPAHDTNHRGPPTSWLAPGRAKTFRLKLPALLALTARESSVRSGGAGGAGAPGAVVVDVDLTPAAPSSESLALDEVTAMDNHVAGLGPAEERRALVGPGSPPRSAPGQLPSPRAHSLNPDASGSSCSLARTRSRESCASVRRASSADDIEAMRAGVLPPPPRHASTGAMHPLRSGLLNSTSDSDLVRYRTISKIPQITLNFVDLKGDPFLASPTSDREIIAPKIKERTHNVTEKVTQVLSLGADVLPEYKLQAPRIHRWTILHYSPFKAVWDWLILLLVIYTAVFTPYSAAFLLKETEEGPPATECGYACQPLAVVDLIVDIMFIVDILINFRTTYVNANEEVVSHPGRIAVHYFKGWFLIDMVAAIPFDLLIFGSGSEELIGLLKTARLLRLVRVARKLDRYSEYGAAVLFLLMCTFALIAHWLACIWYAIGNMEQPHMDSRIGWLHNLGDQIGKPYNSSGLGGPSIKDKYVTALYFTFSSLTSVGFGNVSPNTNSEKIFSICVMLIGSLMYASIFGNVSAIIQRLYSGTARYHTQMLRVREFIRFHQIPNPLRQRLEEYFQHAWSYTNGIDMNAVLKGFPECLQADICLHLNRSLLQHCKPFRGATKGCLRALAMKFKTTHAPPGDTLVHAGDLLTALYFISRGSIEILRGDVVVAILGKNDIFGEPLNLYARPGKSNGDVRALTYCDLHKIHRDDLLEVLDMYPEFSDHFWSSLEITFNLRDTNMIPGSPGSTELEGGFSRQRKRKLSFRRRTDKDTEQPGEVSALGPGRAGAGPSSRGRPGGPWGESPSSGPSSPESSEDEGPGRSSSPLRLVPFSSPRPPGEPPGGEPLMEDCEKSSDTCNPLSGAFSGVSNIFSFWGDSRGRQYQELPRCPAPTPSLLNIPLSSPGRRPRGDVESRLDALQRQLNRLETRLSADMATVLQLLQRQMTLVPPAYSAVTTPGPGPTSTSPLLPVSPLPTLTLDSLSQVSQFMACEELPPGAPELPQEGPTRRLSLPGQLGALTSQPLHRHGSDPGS", "assay": "primary screen, population patch clamp on CHO cells stably expressing hERG", "units": {"hERG current change (%, negative = inhibition) at 10uM": "%"}}
{"smiles": "COc1cc(CN2CCN(S(=O)(=O)c3ccc(F)cc3)CC2)cc(OC)c1OC.O=C(O)C(=O)O", "hERG current change (%, negative = inhibition) at 10uM": -5.89}
{"smiles": "Cc1ccccc1NC(=O)C(=O)NCCc1c[nH]c2ccccc12", "hERG current change (%, negative = inhibition) at 10uM": -2.22}
{"smiles": "CC1(C)OC(=O)C(=CSc2ccc(C(C)(C)C)cc2)C(=O)O1", "hERG current change (%, negative = inhibition) at 10uM": -2.72}
{"smiles": "Cn1ncc(N=Cc2c(O)ccc3ccccc23)c1C(=O)N1CCOCC1", "hERG current change (%, negative = inhibition) at 10uM": 2.54}
{"smiles": "O=C(N/N=C/c1c(O)n(C2CCCCC2)c(=S)[nH]c1=O)c1ccccc1O", "hERG current change (%, negative = inhibition) at 10uM": 11.3}
{"smiles": "O=C(NCCCN1CCOCC1)c1ccc2c(c1)N(Cc1ccccc1)C(=O)c1ccccc1S2=O", "note": "(stereo not drawn)", "hERG current change (%, negative = inhibition) at 10uM": -13.6}
{"smiles": "O=C1C(=O)N(CC2CCCO2)C(c2ccccc2[N+](=O)[O-])/C1=C(/O)c1ccccc1", "note": "(stereo not drawn)", "hERG current change (%, negative = inhibition) at 10uM": 21.6}
{"smiles": "CCOC(=O)C1=C(C)Nc2ccccc2N=C1NC(=O)/C=C/c1ccc(OC)cc1OC", "hERG current change (%, negative = inhibition) at 10uM": -13.8}
{"smiles": "O=C(NCc1ccccc1)c1ccc2nc(-c3ccco3)c(-c3ccco3)nc2c1", "hERG current change (%, negative = inhibition) at 10uM": -10.7}
{"smiles": "CN(Cc1ccccc1)c1ncnc2sccc12", "hERG current change (%, negative = inhibition) at 10uM": -8.6}
{"smiles": "CN(c1ccc(C(=O)NCc2ccccn2)cc1)S(=O)(=O)c1ccc(Cl)cc1", "hERG current change (%, negative = inhibition) at 10uM": -7.33}
{"smiles": "Cc1cccn2c(=O)c(C=NCCO)c(NCc3ccco3)nc12", "hERG current change (%, negative = inhibition) at 10uM": -18.7}
{"smiles": "C=CCn1c(SCC(=O)Nc2sc(C)c(C)c2C(=O)OCC)nnc1-c1sc(N)nc1C", "hERG current change (%, negative = inhibition) at 10uM": 4.94}
{"smiles": "CSCc1ccc(C(=O)NCc2ccc(F)cc2)cc1", "hERG current change (%, negative = inhibition) at 10uM": -2.07}
{"smiles": "O=C(NCCN1CCOCC1)/C(=C/c1ccccc1)NC(=O)c1ccccc1", "hERG current change (%, negative = inhibition) at 10uM": -16.4}
{"smiles": "COCCN(C(=O)CSc1nnc(-c2ccco2)n1C)c1c(N)n(CC(C)C)c(=O)[nH]c1=O", "hERG current change (%, negative = inhibition) at 10uM": 8.41}
{"smiles": "CCc1ccc2n(-c3ccc(OC)cc3)c([S-])c(C(=O)Nc3cc(C)cc(C)c3)[n+]2c1", "hERG current change (%, negative = inhibition) at 10uM": 12.3}
{"smiles": "O=C(COC(=O)Cc1ccsc1)Nc1cccc(F)c1", "hERG current change (%, negative = inhibition) at 10uM": -0.473}
{"smiles": "COc1ccc(C(=O)N2CCN(c3cnn(-c4ccccc4)c(=O)c3Cl)CC2)cc1", "hERG current change (%, negative = inhibition) at 10uM": -71.3}
{"smiles": "CC(=O)c1ccc(OCCCC(=O)OCC(=O)Nc2c(C)nn(-c3ccccc3)c2C)cc1", "hERG current change (%, negative = inhibition) at 10uM": -7.41}
{"smiles": "Cc1nn(C2CCS(=O)(=O)C2)c(Cl)c1/C=C/C(=O)OCC(=O)Nc1ccccc1OC(F)F", "note": "(stereo not drawn)", "hERG current change (%, negative = inhibition) at 10uM": -49.2}
{"smiles": "COc1cccc(-c2ccc(=O)n(CC(=O)NCCN3CCOCC3)n2)c1", "hERG current change (%, negative = inhibition) at 10uM": -6.39}
{"smiles": "CC(C)C1S/C(=N/N=C/c2cccs2)NC1=O", "note": "(stereo not drawn)", "hERG current change (%, negative = inhibition) at 10uM": 11.8}
{"smiles": "CC(CCO)Nc1nc2c(c(=O)n(C)c(=O)n2C)n1Cc1cccc(Br)c1", "note": "(stereo not drawn)", "hERG current change (%, negative = inhibition) at 10uM": -2.15}
{"smiles": "COc1ccc(Nc2nc(N)c(C(=O)c3ccc(OC)cc3)s2)cc1", "hERG current change (%, negative = inhibition) at 10uM": -52.7}
{"smiles": "COc1ccc(C(=O)N2CCCC(O)C2)cc1OC1CCN(C(C)C)CC1", "note": "(stereo not drawn)", "hERG current change (%, negative = inhibition) at 10uM": 23.8}
{"smiles": "CC1=NN(c2ccccc2)C(=O)/C1=C\\c1cn(C)c2ccccc12", "hERG current change (%, negative = inhibition) at 10uM": 19.3}
{"smiles": "COCC(C)NC(C(=O)Nc1cccc(C(C)=O)c1)c1ccccc1", "note": "(stereo not drawn)", "hERG current change (%, negative = inhibition) at 10uM": -5.76}
{"smiles": "NC(=O)C1CCN(C(=O)C2(NC(=O)Nc3cccc(F)c3)CCCCC2)CC1", "hERG current change (%, negative = inhibition) at 10uM": 10.2}
{"smiles": "CCCc1nc2sc3c(=O)n(N)cnc3c2c2c1COC(C)(C)C2", "hERG current change (%, negative = inhibition) at 10uM": 7.41}
{"smiles": "CCOC(=O)C1C2NC(=O)N(Cc3ccccc3)C1(C)Oc1c(OC)cccc12", "note": "(stereo not drawn)", "hERG current change (%, negative = inhibition) at 10uM": 5.29}
{"smiles": "COc1ccc(Cl)cc1NC(=O)CSc1nc(Nc2ccccc2)nc(N2CCOCC2)n1", "hERG current change (%, negative = inhibition) at 10uM": 4.41}
{"smiles": "CN(CC(=O)Nc1ccc2c(c1)CCC2)CC(=O)Nc1ccccc1Br", "hERG current change (%, negative = inhibition) at 10uM": -1.6}
{"smiles": "CCOc1ccc(C2CC(c3cccc(OC)c3OC)n3nnnc3N2)cc1Cl", "note": "(stereo not drawn)", "hERG current change (%, negative = inhibition) at 10uM": -19.2}
{"smiles": "Cc1ccccc1Oc1nc(-c2ccccn2)nc2ccccc12", "hERG current change (%, negative = inhibition) at 10uM": -10}
{"smiles": "O=C(CN1CCCCC1)NC(=O)NC1CCCC1", "hERG current change (%, negative = inhibition) at 10uM": 6.94}
{"smiles": "CC(C)CC1(C)NC(=O)N(Cc2cc([N+](=O)[O-])cc3c2OCOC3)C1=O", "note": "(stereo not drawn)", "hERG current change (%, negative = inhibition) at 10uM": -4.84}
{"smiles": "Cc1ccc(CN2CCS(=O)(=O)CC2)o1", "hERG current change (%, negative = inhibition) at 10uM": -3.44}
{"smiles": "CCN(CC)c1ccc(/C=C2\\C(=O)NC(=S)N(c3ccc(OC)cc3OC)C2=O)o1", "hERG current change (%, negative = inhibition) at 10uM": -4.73}
{"smiles": "C1=Nc2c(Nc3ccccc3)ncnc2Oc2ccccc21", "hERG current change (%, negative = inhibition) at 10uM": -2.34}
{"smiles": "Cc1ccc2[nH]c(C(=O)O)c(NC(=O)[C@@H]3C[C@@H]3c3ccccc3)c2c1", "hERG current change (%, negative = inhibition) at 10uM": -2.52}
{"smiles": "COc1cccc(N(C(=O)CNC(=O)c2ccco2)C(C(=O)NC2CCCCC2)c2cccnc2)c1", "note": "(stereo not drawn)", "hERG current change (%, negative = inhibition) at 10uM": 3.87}
{"smiles": "Cc1cccc(OCCNc2ccc([N+](=O)[O-])cn2)c1", "hERG current change (%, negative = inhibition) at 10uM": -21.3}
{"smiles": "Cc1noc(C)c1COc1ccc(C(=O)N2CCN(c3ccccc3F)CC2)cc1", "hERG current change (%, negative = inhibition) at 10uM": -55}
{"smiles": "O=C(NC(=S)Nc1ccc(N2CCOCC2)cc1)c1ccc2c(c1)OCCO2", "hERG current change (%, negative = inhibition) at 10uM": 17.3}
{"smiles": "Cc1ccc(Nc2nc(-c3ccccc3)c(CC(=O)O)s2)cc1", "hERG current change (%, negative = inhibition) at 10uM": 31.3}
{"smiles": "CCOn1c(=O)c(=O)n(OCc2ccccc2)c2ccccc21", "hERG current change (%, negative = inhibition) at 10uM": -3.67}
{"smiles": "O=C(N1CCCCCC1)N1CCN(S(=O)(=O)N2CCOCC2)CC1", "hERG current change (%, negative = inhibition) at 10uM": -3.51}
{"smiles": "CCn1c(C)nc2cc(C(=O)NNC(=O)CCC3CCCC3)ccc21", "hERG current change (%, negative = inhibition) at 10uM": 9.18}
{"smiles": "CCC(=O)N1CCc2cc(S(=O)(=O)NC(C(=O)NC3CCCc4ccccc43)C(C)C)ccc21", "note": "(stereo not drawn)", "hERG current change (%, negative = inhibition) at 10uM": -1.57}
{"smiles": "O=C1NC(c2ccccc2)=C(c2ccc3ccccc3n2)C(c2ccccc2)N1", "note": "(stereo not drawn)", "hERG current change (%, negative = inhibition) at 10uM": 6.13}
{"smiles": "CCCN1C(=O)/C(=C/c2ccc(C)s2)NC1=S", "hERG current change (%, negative = inhibition) at 10uM": 15.8}
{"smiles": "O=C(c1ccccc1F)N1CCC(O)(c2cccnc2)CC1", "hERG current change (%, negative = inhibition) at 10uM": 5.56}
{"smiles": "CN1C(=O)/C(=C/c2cc3c(cc2Br)OCO3)NC1=S", "hERG current change (%, negative = inhibition) at 10uM": 20.5}
